# Data: ChEMBL document CHEMBL1201862, “PubChem BioAssay data set” (2004)
# Tested on: NCI-H322M
# Experiment: DTP human tumour cell line panel, 48 h
row,SMILES,GI50
1,Nc1ccc2nc(-c3cccc(C(F)(F)F)c3)cc(O)c2c1,inactive: 40.6 µM
2,O=C(Oc1ccc2c(c1)CN(Cc1ccccc1)CO2)c1ccccc1,inactive: 18.3 µM
3,COc1cccc(CSCC(=O)O)c1,inactive: > 100 µM
4,c1coc(C2=Nc3cccc4cccc(c34)N2)c1,inactive: 94.2 µM
5,COC(=O)C(=O)C(C(=O)C(=O)Nc1cccc(C(C)=O)c1)c1nc2ccccc2nc1O (configuration not stated),inactive: > 100 µM
6,O=C(O)Cc1ccc([N+](=O)[O-])cc1[N+](=O)[O-],inactive: > 100 µM
7,c1cc2c(cc1C(N1CCNCC1)N1CCNCC1)OCO2,inactive: > 100 µM
8,O=C1NC(=S)N/C1=C\c1ccc(Br)s1,inactive: > 100 µM
9,OCCN(CCO)c1ccc2c(-c3ccccc3)cc(N(CCO)CCO)nc2n1,inactive: > 100 µM
10,COc1cccc(CCCNC(=O)Cc2cc(OC)c(OC)cc2CO)c1,inactive: > 100 µM
11,O=C(COc1ccc(OCC(=O)N2C(=O)CS/C2=N\c2ccccc2)cc1)N1C(=O)CS/C1=N\c1ccccc1,inactive: 19.9 µM
12,OC1CC(O)c2c(Cl)sc(Cl)c21 (configuration not stated),inactive: 30.4 µM
13,COc1ccc(-n2c(C)nc3ccc(NC4OCC(O)C(O)C4O)cc3c2=O)cc1 (configuration not stated),inactive: > 100 µM
14,COc1ccc(/C=N/n2c(C)n[nH]c2=O)c(OC)c1,inactive: > 100 µM
15,CC(C)(C)OC(=O)NCC(=O)NC1C/C(=N\O)c2sccc21 (configuration not stated),inactive: > 100 µM
16,O=C1C2c3[nH]c4ccccc4c3[C@@H]3CCCCCCCCCCC3C2C(=O)N1c1ccccc1 (some centres not stated),inactive: 90.8 µM
17,C=C1CC2(C[C@@H](c3ccccc3)O[C@@H](c3ccccc3)C2)OC1=O (some centres not stated),inactive: 8.28 µM
18,COc1cc(/C=C2\CCC(C)C3C2=NN(C(C)=O)C3c2cc(OC)c(OC)c(OC)c2)cc(OC)c1OC (configuration not stated),inactive: > 52 µM
19,CN(C)C1COC2Cc3ccccc3C1O2 (configuration not stated),inactive: > 100 µM
20,C#CCN(C(=O)C(F)(F)F)c1ccc(C(=O)c2ccc(N(CC#C)C(=O)C(F)(F)F)cc2)cc1,inactive: 38.7 µM
21,O=C1NC(N2CCOCC2)=N/C1=C\c1ccccc1O,inactive: > 100 µM
22,COc1ccc2[nH]c3c(C)c4ccnc(NCCCN(C)CCCNc5ccc6ncn7c8ccccc8c(=O)c5c67)c4c(C)c3c2c1,active: 0.454 µM

row,SMILES,GI50
1,CCOC(=O)c1cc(/C=C/C(C)=C/C(=O)OC)oc1C,inactive: > 100 µM
2,Cn1cc(NC(=O)c2cc(NC(=O)CCCCCCCCCC(=O)Nc3cc(C(=O)Nc4cc(C(=O)NCCC(=N)N)n(C)c4)n(C)c3)cn2C)cc1C(=O)NCCC(=N)N,inactive: 20.1 µM
3,Cc1ccc(-c2c(C#N)c(-c3ccc(Cl)cc3)c(C#N)c(=O)n2NS(=O)(=O)c2ccc(C)cc2)cc1,inactive: 29.4 µM
4,O=C1CC2CCN(C(=O)c3ccccc3)CC2CCN1 (configuration not stated),inactive: > 100 µM
5,CC(=O)NCc1c(C(N)=O)ncn1Cc1ccccc1,inactive: > 100 µM
6,N#CCCN(CCC#N)C(=O)c1cccc(C(=O)N(CCC#N)CCC#N)c1,inactive: > 100 µM
7,O=C(CCCCCCCCC(=O)OCC1OC(n2cnc3c(=O)[nH]cnc32)C(O)C1O)OCC1OC(n2cnc3c(=O)[nH]cnc32)C(O)C1O (configuration not stated),inactive: > 100 µM
8,COc1ccc(NC(=O)C2C(=O)N(c3ccc(OC)cc3)C(=O)/C2=N\N)cc1 (configuration not stated),inactive: > 100 µM
9,COc1ccc(NC(=O)/C(=N/O)C(C)=O)cc1,inactive: > 100 µM
10,Fc1ccc2c(c1)nc1n2C(c2c(Cl)cccc2Cl)SC1 (configuration not stated),inactive: 20.3 µM
11,CSC1=Nc2ccccc2-c2nc3ccccc3cc2C1,inactive: > 100 µM
12,COc1cc(OC)c(NC2=NCCO2)cc1Cl,inactive: 54.7 µM
13,CC(=O)O[C@@H]1[C@H](C(C)C)[C@@H](OC(C)=O)C/C(C)=C/CC[C@]2(C)O[C@@H]12,inactive: > 100 µM
14,CN(C)c1ccc(C2CC(c3ccc4ccccc4c3O)=NN2)cc1 (configuration not stated),inactive: 35.3 µM
15,COc1cc2nc(-c3c(F)cccc3F)n(Cc3c(F)cccc3F)c2cc1Cc1c(F)cccc1F,inactive: > 100 µM
16,C=CCOC(=O)CCCCCCCCCCCCCCCOC(=O)C1=C(CCC[C@@H](C)O[Si](C)(C)C(C)(C)C)NC(=O)N2[C@H](CC3(CC/C=C\[C@H](CC)O[Si](C(C)C)(C(C)C)C(C)C)OCCO3)CC[C@H]12,inactive: > 100 µM
17,CCOP(=O)(OCC)/C(C#N)=C/c1ccc(-c2ccc(F)cc2F)o1,inactive: 17.9 µM
18,O=c1c2ccccc2n2c(-c3ccc(O)cc3)nnc2n1-c1ccccc1,inactive: 25.2 µM
19,CCOC(=O)c1cc(I)c(-c2cc(C)no2)n1C,inactive: > 100 µM
20,CCNC(=S)N/N=C/c1cc([N+](=O)[O-])ccc1O,inactive: 51.5 µM
21,COC1=C(C)C(=O)C2=C(C1=O)C1C3CC4=C(C(=O)C(OC)=C(C)C4=O)C(CNC(=O)C(C)O)N3C(C#N)C(C2)N1C (configuration not stated),active: 0.0348 µM
22,COc1ccc(/C=C2\OC(=O)C(Cl)=C2c2ccc(OC)c(Cl)c2)cc1,inactive: 39.8 µM

row,SMILES,GI50
1,CCOC(=O)c1ccc(NCc2ccc3nc(OC)c(OC)nc3c2)cc1,inactive: > 100 µM
2,O=C(CSc1nc2ccc(I)cc2c(=O)n1Cc1ccccc1)NNC(=O)c1ccccc1,inactive: 11.3 µM
3,N#CC12Cc3ccc4c(c3-c3cccc(c31)CCN2C(=O)c1ccccc1)OCO4 (configuration not stated),inactive: > 100 µM
4,O=S(=O)(NC1OCCCC1I)c1ccccc1 (configuration not stated),inactive: > 100 µM
5,CC(=O)OCC1OC(n2c(-c3ccc(C)cc3)cc(-c3ccco3)c(C#N)c2=S)C(OC(C)=O)C(OC(C)=O)C1OC(C)=O (configuration not stated),inactive: > 100 µM
6,N#Cc1cccc(C2ON=C(c3ccc([N+](=O)[O-])cc3)N2C23CC4CC(CC(C4)C2)C3)c1 (configuration not stated),inactive: > 100 µM
7,O=C1/C(=C/c2ccc(O)cc2)NC(=S)N1CN1CCCCC1,inactive: > 100 µM
8,Cn1c(-c2ccc[se]2)ccc1-c1ccc(CO)[se]1,inactive: 39.7 µM
9,C=C1CCCC2[C@](C)(CC3=C(Cl)C(=O)C=C(OC)C3=O)C(C)CC[C@]12C (some centres not stated),inactive: 8.99 µM
10,COc1cc2c(c(OC)c1)C1(CC(CC#N)C2)SCCS1 (configuration not stated),inactive: > 100 µM
11,CCOC(=O)C(NC(=O)c1cccc(Cl)c1)(Nc1ccc(S(=O)(=O)Nc2cc(C)nc(C)n2)cc1)C(F)(F)F (configuration not stated),inactive: > 100 µM
12,C=CCNC(=S)N1CC(C)C(=O)Nc2cc(Cl)ccc21 (configuration not stated),inactive: > 100 µM
13,Cc1ccccc1C(=O)c1ccccc1O,inactive: > 100 µM
14,C/C=C(\C)[C@@H](O)C(=O)O[C@@H]1CC(C(C)(C)O)[C@](C)(CCC(=O)OC)[C@H]2[C@H](OC(=O)[C@H](O)[C@H](C)CC)C[C@]3(C)C(=CC[C@H]3[C@H]3CO[C@H](C=C(C)C)C3)[C@]12C (some centres not stated),inactive: 34.4 µM
15,COc1cc2nc3c(=C(C#N)C#N)c4ccccc4n3c(=O)c2cc1OC,inactive: > 100 µM
16,CC(=O)Nc1ccc(S(=O)(=O)N/N=C/CN2C(=O)c3ccccc3C2=O)cc1,inactive: > 100 µM
17,CC(=O)N1N=C(c2ccc3ccccc3c2O)CC1c1ccc(Cl)cc1Cl (configuration not stated),inactive: 46.8 µM
18,CC(N)Cc1ccc(C(=O)Cl)cc1 (configuration not stated),inactive: > 100 µM
19,Cc1ccc(S(=O)(=O)N2CCCN(S(=O)(=O)c3ccc(C)cc3)CCN(S(=O)(=O)c3ccc(C)cc3)CCCSCC2)cc1,inactive: > 100 µM
20,CN(C)CCCN1C(=S)N(CCCN(C)C)c2c3ccccc3nc3c([N+](=O)[O-])ccc1c23,inactive: 6.55 µM
21,CC1SC2=NC3=C(c4ccccc4C3=O)C(c3ccc(F)cc3)N2C1=O (configuration not stated),inactive: > 100 µM
22,C#Cc1cc(Br)c(OC(=O)C(C)(C)C)c(-c2cc(C#C)cc(Br)c2OC(=O)C(C)(C)C)c1,inactive: 31.1 µM

row,SMILES,GI50
1,CN(C)CCNC(=O)c1ccc(Cl)c2ccc(-c3ccccc3)nc12,inactive: 3.14 µM
2,CN(C)C(=S)/N=c1\ss/c(=N\S(=O)(=O)c2ccccc2)n1C,inactive: > 100 µM
3,COC(=O)Cc1c([C@@H]2Nc3ccccc3[C@H]2CC(=O)OC)[nH]c2ccccc12,inactive: > 100 µM
4,Oc1ccc2cc(Br)ccc2c1-c1c(O)ccc2ccc(Br)cc12,inactive: 13.6 µM
5,CC(C)C1COC(c2ccc3ccccc3c2-c2c(O[Si](C)(C)C(C)(C)C)ccc3ccccc23)=N1 (configuration not stated),inactive: 17.1 µM
6,CN(C)c1ccc(/N=C2/NC(=N\c3ccccc3)/C(=N/c3ccccc3)S2)cc1,inactive: 58.2 µM
7,Cc1c2ccncc2cc2c1sc1ccncc12,inactive: 3.47 µM
8,CC1C2CC(CC(=O)N2)C1(C)C (configuration not stated),inactive: > 100 µM
9,COC(=O)C(/C(=N\O)C(=O)Nc1cccc(Cl)c1C)c1cnc2ccccc2n1 (configuration not stated),inactive: > 100 µM
10,CC(C)c1ccccc1NC(=O)C(=O)Cc1nc2ccccc2s1,inactive: > 100 µM
11,COc1cc(OC)cc(-n2c(N)c(-c3nc4ccccc4n3C)c3ccc([N+](=O)[O-])cc3c2=O)c1,inactive: 73.3 µM
12,O=S(=O)(O)c1ccc(/N=N\c2ccc(/N=N/c3ccc(/C=C/c4ccc(/N=[N+](\[O-])c5ccc(/C=C/c6ccc(/N=N/c7ccc(/N=N/c8ccc(S(=O)(=O)O)cc8)c8ccccc78)cc6S(=O)(=O)O)c(S(=O)(=O)O)c5)cc4S(=O)(=O)O)c(S(=O)(=O)O)c3)c3ccccc23)cc1,inactive: > 77.8 µM
13,O=C(O)C(F)(F)C(F)(F)C(F)(F)C(F)(F)C(=O)O,inactive: > 100 µM
14,[N-]=[N+]=N[C@H]1C[C@@H](CO)O[C@H]1n1cnc2c(N)ncnc21,inactive: > 100 µM
15,C[N+](C)(C)/C=N\c1cccc2nsnc12,inactive: > 100 µM
16,CC1(C)[C@@H]2C[C@H]1C(Cc1cccc(C[C@H]3c4cc(-c5ccccn5)ncc4[C@H]4C[C@@H]3C4(C)C)c1)c1cc(-c3ccccn3)ncc12 (some centres not stated),active: 0.701 µM
17,COc1cc(/C=C2\CCc3ccccc3C2=O)cc(OC)c1OC,inactive: 17.6 µM
18,BrC(Br)([P+](c1ccccc1)(c1ccccc1)c1ccccc1)[P+](c1ccccc1)(c1ccccc1)c1ccccc1,inactive: 58.1 µM
19,C[N+]1(CCCl)CC[N+](C)(CCCl)CC1 (configuration not stated),inactive: > 100 µM
20,CN(C)Cc1cc(/C=C/C(=O)c2ccc(Br)cc2)cc(CN(C)C)c1O,inactive: 24.2 µM
21,CN1C/C(=C\c2cccs2)C(=O)/C(=C/c2cccs2)C1,inactive: 21 µM

#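 Method: 48-hour compound exposure of cells in 96-well plates, five concentrations, linear interpolation of endpoints. GI50 marks 50% less growth.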 Active and inactive are the calls of the source. Cut-off read from the data, not from the text of the source: active = GI50 up to about 1.1 µM and inactive = higher.
